From PubChem BioAssay AID1240 (Sanford-Burnham Center for Chemical Genomics, 2008)
Hit rate of the full screen: of about 50,000 compounds, about 800 (1.6%) showed an effect of 50% or more. The list shows a part of the results.

Target: Bcl-2-like protein 10 (Homo sapiens) (UniProt Q9HD36)
Test: Phenotype converters, Bcl-B/TR3 peptide binding displacement, primary biochemical FP (AID 1240);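 note: 0% = Bcl-B with tracer peptide and DMSO and 100% = tracer peptide lacking Bcl-B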
Details: GST-Bcl-B / FITC-TR3 peptide fluorescence polarization; stronger effect = higher value; compound at 3.75 mg/L

Chain of UniProt Q9HD36 (Q9HD36 whole entry, looked up): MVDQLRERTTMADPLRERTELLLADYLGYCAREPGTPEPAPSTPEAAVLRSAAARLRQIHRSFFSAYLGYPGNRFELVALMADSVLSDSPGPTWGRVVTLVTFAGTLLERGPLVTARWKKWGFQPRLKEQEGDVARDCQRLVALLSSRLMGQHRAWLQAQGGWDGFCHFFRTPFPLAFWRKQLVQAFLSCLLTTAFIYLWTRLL

Q: How did the displacement turn out when `O=c1oc2ccccc2c2c1nnn2CCN1CCCCC1` was run?
A: The displacement was -6%.

Q: Which displacement does the source give for `COc1cc(NC(=O)Cn2nc(C(F)(F)F)c(Br)c2C)c(OC)cc1Cl` here?
A: The displacement was -7%.

Q: With `O=C1C2C(c3ccccc3)OC3(C(=O)c4ccccc4C3=O)C2C(=O)N1c1ccc(F)c([N+](=O)[O-])c1` (stereo unspecified) as the compound, how does the displacement read?
A: Its displacement is -6.5%.

Q: `CS(=O)(=O)N1CCN(C(=O)c2ccc([N+](=O)[O-])cc2)CC1` was tested. Which displacement did it give?
A: Its displacement is -29.2%.

Q: How did the displacement turn out when `CC(=O)Nc1ccc(S(=O)(=O)N/N=C(\C)c2cccs2)cc1` was run?
A: Its displacement is 2.2%.

Q: For `CO/N=C(/c1nonc1N)N1CCN(c2ccc([N+](=O)[O-])cc2)CC1`, which displacement is on record?
A: The displacement was 14.1%.

Q: `Cc1ccc(C(C)C)c(OCC(=O)Nc2ccc(NC(=O)c3ccco3)cc2)c1` was tested. Which displacement did it give?
A: The displacement was 33.9%.

Q: For `CCN1CCN(Cc2c(O)ccc3ccccc23)CC1`, which displacement is on record?
A: Its displacement is 13.6%.

Q: With `CCN(CC)c1ccc(NC(=O)c2ccccc2)cc1` as the compound, how does the displacement read?
A: The displacement was 11.1%.

Q: `c1ccc(C2CCC(N3CCN(Cc4ccncc4)CC3)CC2)cc1` (stereo unspecified) was tested. Which displacement did it give?
A: Its displacement is -0.2%.

Q: With `CCCCOc1ccc(NCN2C(=O)c3ccccc3C2=O)cc1` as the compound, how does the displacement read?
A: The displacement was 14.6%.

Q: For `CCn1c(C)[n+](CC)c2ccc([N+](=O)[O-])cc21`, which displacement is on record?
A: Its displacement is 11.4%.

Q: For `CCOC(=O)c1ccc(NC(=O)c2c(Cl)cccc2Cl)cc1`, which displacement is on record?
A: Its displacement is 9.6%.

Q: How did the displacement turn out when `Cc1cc(C=O)c(C)n1-c1ccc(Br)cc1` was run?
A: The displacement was -3.8%.

Q: For `COc1ccc2c(Cl)c(C(=O)N3CCN(c4ccccc4)CC3)sc2c1`, which displacement is on record?
A: The displacement was 10.2%.

Q: `COc1cccc(CN2CCN(Cc3cccc(F)c3)CC2)c1OC` was tested. Which displacement did it give?
A: Its displacement is 3.2%.

Q: With `Cc1ccc(/C(N)=N/OC(=O)c2cccc(Br)c2)cc1` as the compound, how does the displacement read?
A: Its displacement is 8.8%.

Q: Which displacement does the source give for `COc1ccc(-c2ccc(CO)o2)cc1` here?
A: The displacement was 12.6%.

Q: For `Cc1ccccc1C(=O)Nc1sc2c(c1C(=O)N1CCN(Cc3ccccc3)CC1)CCC(C)C2` (stereo unspecified), which displacement is on record?
A: The displacement was -3.1%.

Q: Which displacement does the source give for `CCOC(=O)c1ccc(-c2ccc(/C=C3/SC(=S)N(CC)C3=O)o2)cc1` here?
A: The displacement was 31%.

Q: Which displacement does the source give for `COc1cccc(N2C(=O)NC(=O)/C(=C/c3ccoc3)C2=O)c1` here?
A: The displacement was -64.3%.

Q: `Cc1ccc(N2CC(C(=O)Nc3nccs3)CC2=O)cc1` (stereo unspecified) was tested. Which displacement did it give?
A: Its displacement is 7.1%.

Q: For `O=S(=O)(Nc1cc(Br)c(O)c2ccccc12)c1cc(Cl)ccc1Cl`, which displacement is on record?
A: The displacement was 21%.

Q: How did the displacement turn out when `COc1ccc(-c2cc(C(=O)Nc3nc(C)c(C)s3)c3ccccc3n2)cc1OC` was run?
A: The displacement was 7.9%.

Q: Which displacement does the source give for `CCC1=[N+](C)c2cccc3cccc(c23)N1C` here?
A: The displacement was 3.9%.

Q: `COC(=O)C1(S(=O)(=O)c2ccc(Cl)cc2)CC1` was tested. Which displacement did it give?
A: Its displacement is -2.6%.

Q: With `Cc1cccc(/C(N)=N/OC(=O)c2ccco2)c1` as the compound, how does the displacement read?
A: Its displacement is -7.6%.

Q: For `NC(=O)c1ccc(NC(=O)c2ccc(I)cc2)cc1`, which displacement is on record?
A: The displacement was 10.8%.

Q: `O=C(Nc1ccc(-c2nc3ccccc3c(=O)o2)cc1)c1cccs1` was tested. Which displacement did it give?
A: The displacement was -8.4%.

Q: With `O=C(Nc1nc2ccc([N+](=O)[O-])cc2s1)c1cc(Cl)cc(Cl)c1` as the compound, how does the displacement read?
A: Its displacement is 11.9%.

Q: Which displacement does the source give for `CCOc1ccc(NC(=O)c2c(NC(=O)C(C)(C)C)sc3c2CCCC3)cc1` here?
A: Its displacement is -3.2%.
